Measured values published in the supplement of paper PMC3334620.
The full ranking holds about 33,000 sequences; the median of “E-score (-0.5 to 0.5)” is about -0.013, and the highest 2% start at about 0.3. This is one part of the list.

Target: T1, Msn1 (UniProt P22148)
T1 sequence: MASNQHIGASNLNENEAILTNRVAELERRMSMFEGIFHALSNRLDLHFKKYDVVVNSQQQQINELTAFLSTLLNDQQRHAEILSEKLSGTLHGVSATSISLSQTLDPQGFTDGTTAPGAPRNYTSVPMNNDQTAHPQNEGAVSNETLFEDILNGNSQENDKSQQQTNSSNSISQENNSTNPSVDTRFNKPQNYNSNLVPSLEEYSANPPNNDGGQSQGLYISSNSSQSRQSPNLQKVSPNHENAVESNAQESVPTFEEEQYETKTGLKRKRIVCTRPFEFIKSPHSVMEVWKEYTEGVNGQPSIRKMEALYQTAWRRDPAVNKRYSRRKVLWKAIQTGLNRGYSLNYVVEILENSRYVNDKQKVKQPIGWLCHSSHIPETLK
Assay: PBM E-score (8-mer binding enrichment) (E-score (-0.5 to 0.5)); higher = stronger / more preferred TF binding; most listed sequences are background and not binding sites
Settings: protein concentration: 200 nM; construct: GST-full length
In short: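 PURExpress in vitro transcription/translation supplied GST-tagged yeast transcription factors, either full-length or DNA-binding domain. Applied at about 100-200 nM to universal all-10-mer Agilent arrays double-stranded by primer extension, the bound protein was detected with fluorescent anti-GST. E-scores, modified Wilcoxon-Mann-Whitney statistics, were given by the Universal PBM Analysis Suite to ungapped eight-base words pooled with their reverse complements after masliner normalisation.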

In order of falling “PBM E-score” value:
1. AGGTACAA  0.394
2. TGTATCAA  0.325
3. ATCGTGCG  0.306
4. GACATCTC  0.288
5. CCAAGACA  0.281
6. CCGAAACA  0.277
7. ACAAAGCT  0.256
8. ACTTTCAC  0.243
9. CCACAAGG  0.232
10. AGTGGACG  0.212
11. AATTATGA  0.208
12. CGCACGTC  0.205
13. GTCATACA  0.203
14. GACTTGCA  0.201
15. AACTGAGG  0.19
16. ATTCAAAT  0.188
17. TCCACAGA  0.184
18. CGAAGTCC  0.162
19. ATTCCGAC  0.162
20. AAGTCTAT  0.161
21. ACAAACTG  0.158
22. AGACTAAT  0.157
23. ATTATACC  0.15
24. CTCGCTAA  0.149
25. ATGTTATC  0.144
26. AACGGAAC  0.143
27. CATGTAAC  0.143
28. AAAGTACG  0.141
29. ATAGATAG  0.133
30. GAACTCCA  0.131
31. GCCAGACA  0.13
32. GCGCCTTA  0.13
33. ATGCCGAA  0.129
34. CGCTATTA  0.128
35. GTTTGATA  0.127
36. AGGCAAAT  0.124
37. CTTGGCTA  0.124
38. AGGTGAAA  0.122
39. CACCAATA  0.121
40. ACTATTTG  0.12
41. AACTAGGT  0.118
42. CAAAGGAA  0.116
43. ACCAGATA  0.113
44. AGTTATCA  0.111
45. AATAGTAG  0.11
46. AGTTGTAT  0.101
47. ACCCGAGC  0.1
48. ATATTGCA  0.0964
49. GATACGGA  0.0955
50. AGGTATCG  0.0911
51. TAAGATCA  0.0901
52. AGAGTACA  0.0877
53. ATATCGCC  0.0873
54. ATTCCTCA  0.0824
55. ACGCATAA  0.0812
56. TAGCCAAA  0.0767
57. CGGAGGCA  0.0744
58. CGTTGTAG  0.0727
59. CTACGGAC  0.0723
60. AGACACCA  0.0722
61. AGAACTAT  0.0667
62. ATACCGGG  0.0662
63. AGTATCAT  0.0644
64. AATTCATG  0.063
65. ACACGTCA  0.0589
66. CACCGATC  0.0588
67. GAGCCGTA  0.0576
68. CGCAATTA  0.0552
69. GCAATTCA  0.0495
70. GAGCGTTA  0.0482
71. GCAGATAA  0.0478
72. ACCCCGCA  0.0452
73. AACCACAA  0.042
74. CGGAGACG  0.041
75. AAAAACAG  0.0408
76. CCATAGAG  0.0389
77. TGCCCGCA  0.0376
78. AATGACTG  0.0373
79. GCCGCTGA  0.0352
80. GTATAAGA  0.0322
81. CTACTAAC  0.0299
82. CCTTGCGA  0.028
83. AACCTGTA  0.0278
84. CATTTGGG  0.0262
85. ATGCATGC  0.0255
86. GAACGCGC  0.0251
87. CTTGACTA  0.0229
88. AGTGCATG  0.0205
89. GCGACGAC  0.0204
90. CCAAGTCG  0.0204
91. AAATCTCT  0.0194
92. GAATATGC  0.0193
93. ACACATTA  0.0185
94. TGACCCAA  0.0175
95. GGCACGTA  0.0163
96. ACGCACAT  0.0159
97. AGCAATTA  0.0143
98. ATTGGCAC  0.012
99. CTCGCGAC  0.0116
100. TATGCGAA  0.0104
101. GAAGACGA  0.00942
102. CTTTCGAC  0.00939
103. CGGGAAGA  0.00549
104. CCTGTTGA  -0.00042
105. AGAGTGGA  -0.00496
106. ATTCGAAT  -0.00617
107. CTACTGAC  -0.00957
108. CGAACTGA  -0.0123
109. AGATCGCT  -0.0127
110. TAGAGTGA  -0.0167
111. GGTGTCAC  -0.0252
112. ACGTTGCA  -0.0332
113. AAGAGGTA  -0.0393
114. GCAACGGC  -0.0426
115. GTAACTAC  -0.0463
116. ATTCTCTG  -0.052
117. AAACTGGC  -0.0541
118. AGTGCTGG  -0.0583
119. GACCCTCA  -0.0598
120. ATTACGGG  -0.0761
121. CGACAGAC  -0.0767
122. CGCCACTA  -0.0772
123. CGAAGCCA  -0.0797
124. ACCTGCTC  -0.0808
125. GAGACAGC  -0.0865
126. AGCTTACG  -0.0881
127. ACGCAATC  -0.094
128. GAGACCTA  -0.0946
129. CGCCTAAG  -0.0963
130. CTTAGGCA  -0.0986
131. AATGCTGA  -0.0988
132. GCCGTTCA  -0.102
133. AGCAATAA  -0.104
134. CCACCCTC  -0.111
135. CCCAGGAA  -0.112
136. AACACACT  -0.12
137. AGCTGGCA  -0.121
138. GCAAGCCA  -0.124
139. ATACGGGG  -0.124
140. ATCAGAAC  -0.125
141. ACTCACAA  -0.13
142. CAATGCCC  -0.134
143. ACCGTCAC  -0.135
144. ACCACAAT  -0.136
145. AGTCTTTA  -0.142
146. AACGCTTA  -0.15
147. GCCTTCAA  -0.151
148. TACGGGCA  -0.156
149. CTCTAGTC  -0.163
150. ATATACGC  -0.164
151. CCTAGCGC  -0.165
152. CCTGGACG  -0.182
153. AGCTGGCG  -0.182
154. AGTCGGAG  -0.189
155. CCCACCTC  -0.192
156. AGGCGAGG  -0.201
157. CAACCGTC  -0.206
158. GCGGATCC  -0.207
159. CGCCTCCG  -0.211
160. ACGTTCCA  -0.211
161. CCACTAGC  -0.213
162. GAGCTATA  -0.214
163. CTGGGGTC  -0.217
164. AGCTGGAA  -0.218
165. TCGACCCA  -0.228
166. GGTGAACA  -0.231
167. CCCCACTC  -0.24
168. GCCACTAC  -0.277
169. GACCCCGC  -0.278
170. GGCCCTCA  -0.286
171. AGGGGGTA  -0.301
172. AGCCCTGG  -0.37
